PubChem BioAssay AID720709 (National Center for Advancing Translational Sciences (NCATS), 2013)
Among all 360,000 compounds or so, about 520 (0.14%) were called active. The shares of active, inactive and inconclusive entries below differ from those in the screen. The call rests on the fitted dose curve; in most records, active means well fitted inhibition curve with a large enough effect; inconclusive means small, poorly fitted or top-dose-only effect; inactive means no such curve, though single readings can be large or run the other way. A potency beside an inconclusive call is a rough fit, not a confirmed value.

The compounds below were run against Rap guanine nucleotide exchange factor 3 (Homo sapiens) (UniProt O95398) (assay: qHTS for Antagonist of cAMP-regulated guanine nucleotide exchange factor 3 (EPAC1): primary screen). Details: EPAC1 GEF assay, Rap1b-BODIPY-GDP exchange fluorescence; activity change, negative = inhibition: at 115 µM (top of the series).
Sequence of UniProt O95398 (O95398 whole entry, looked up): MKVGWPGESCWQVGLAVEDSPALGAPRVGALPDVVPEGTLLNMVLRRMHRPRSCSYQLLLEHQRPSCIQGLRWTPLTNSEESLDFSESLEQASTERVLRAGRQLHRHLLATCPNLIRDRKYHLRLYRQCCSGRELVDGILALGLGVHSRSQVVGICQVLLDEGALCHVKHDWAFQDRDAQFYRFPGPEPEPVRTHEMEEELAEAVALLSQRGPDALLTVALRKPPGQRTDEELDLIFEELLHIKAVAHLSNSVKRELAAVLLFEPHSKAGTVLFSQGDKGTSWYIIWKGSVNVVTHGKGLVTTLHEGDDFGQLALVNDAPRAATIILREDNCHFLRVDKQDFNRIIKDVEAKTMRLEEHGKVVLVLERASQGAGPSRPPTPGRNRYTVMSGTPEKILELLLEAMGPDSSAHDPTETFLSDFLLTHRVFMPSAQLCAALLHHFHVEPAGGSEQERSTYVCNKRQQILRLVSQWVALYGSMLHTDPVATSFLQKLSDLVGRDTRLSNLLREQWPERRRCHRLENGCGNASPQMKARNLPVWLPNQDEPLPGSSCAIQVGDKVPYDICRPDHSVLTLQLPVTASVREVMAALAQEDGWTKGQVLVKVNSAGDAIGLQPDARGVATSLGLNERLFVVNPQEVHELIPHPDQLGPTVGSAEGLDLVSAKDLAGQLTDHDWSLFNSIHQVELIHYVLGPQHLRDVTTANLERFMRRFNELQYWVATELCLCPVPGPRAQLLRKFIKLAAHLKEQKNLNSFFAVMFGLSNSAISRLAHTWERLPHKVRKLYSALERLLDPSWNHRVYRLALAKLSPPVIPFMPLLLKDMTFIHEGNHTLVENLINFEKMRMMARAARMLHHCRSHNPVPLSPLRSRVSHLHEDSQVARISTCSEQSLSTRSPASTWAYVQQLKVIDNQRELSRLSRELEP
Further: nearly all actives have a fitted effect of over 50% in size.
Potency means the concentration at half of the fitted maximal effect; tags describe the fitted curve by direction and shape.
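Wherever activity change, negative = inhibition is given: plate controls were vehicle for no effect and positive control for full effect.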

Potency, inactive:
COc1cccc(/C=N/NC(=O)c2cccc(N3CCCC3=O)c2)c1, CCOC(=O)C(=O)N(Nc1ccccc1C)c1ccccc1C, Cc1cccc(NC(=O)/C=C/c2ccc([N+](=O)[O-])s2)c1, CCn1ncc(CN2CCC(C(=O)Nc3cccc(-c4cccc(F)c4)c3)CC2)c1C, Cc1cc(NC(=O)COC(=O)CCn2c(C)csc2=O)c([N+](=O)[O-])cc1C, COC(=O)c1cc2c(=O)n3ccccc3nc2n(Cc2cccnc2)c1=N, NC(=O)CCC1NC(=S)N(Cc2ccccc2)C1=O (configuration not stated), S=C1NC2=C(CCC/C2=C\c2ccc(Cl)cc2)C(c2ccc(Cl)cc2)N1 (configuration not stated)

Potency, active:
Oc1ccccc1C=NNC(=S)NN=Cc1ccccc1O 79.4 µM, Oc1ccc(C2=Nn3c(nnc3-c3ccco3)SC2)cc1O 44.7 µM

Potency, inconclusive:
O=C(NC1=NCCS1)c1ccccc1OCc1ccccc1Cl 100 µM [inhibitor, single point], N#Cc1ccccc1Sc1ccccc1C(=O)Nc1ccccc1 12.6 µM [inhibitor, full curve, poor fit], O=C(CN1C(=O)/C(=C/c2ccco2)SC1=S)Nc1ccc(C(=O)O)c(O)c1 44.7 µM [inhibitor, full curve], Cc1ccc(/C=C2/SC(=S)N(c3ccc(S(=O)(=O)Nc4nccs4)cc3)C2=O)cc1 56.2 µM [inhibitor, partial curve, poor fit], Cc1ccc(C)c(NC(=O)C2CCN(C(=O)c3cccs3)CC2)c1 89.1 µM [inhibitor, single point], O=c1cc(-c2ccccc2)oc2cc(O)c(O)c(O)c12 31.6 µM [inhibitor, partial curve], CCOC(=O)C1CCN(S(=O)(=O)c2ccc(CNC(=O)c3ccccc3)s2)CC1 31.6 µM [inhibitor, full curve], COc1ccc(N(CC(=O)NC2CCCCCCC2)S(=O)(=O)c2c(C)nn(C)c2C)cc1 22.4 µM [inhibitor, single point], Cc1ccc(S(=O)(=O)N2[C@@H](c3ccc(Cl)cc3)C(C(=O)OC(C)(C)C)=CC[C@H]2c2ccc(Cl)c(Cl)c2)cc1 79.4 µM [inhibitor, partial curve, poor fit], CC(=O)c1cccc(NC(=O)CN(C)Cc2ccc(OC(F)F)cc2)c1 22.4 µM [inhibitor, full curve, poor fit], O=C(NC(=S)Nc1ccc(S(=O)(=O)N2CCCCC2)cc1)c1cccs1 3.55 µM [inhibitor, full curve, poor fit], Oc1ccccc1N=Cc1c(O)ccc2ccccc12 39.8 µM [inhibitor, partial curve], N#Cc1ccc(N2C(=O)[C@@H]3C(C(=O)C(c4ccccc4)c4ccccc4)=NN[C@@H]3C2=O)cc1 25.1 µM [inhibitor, full curve, poor fit], C#CC(CCN1CCCCC1)(OC)c1ccccc1 (configuration not stated) 31.6 µM [inhibitor, full curve, poor fit], O=C(Nc1cccc2c1C(=O)NC2=O)c1ccc(N2C(=O)CCC2=O)cc1 39.8 µM [inhibitor, single point], COc1ccc(-n2c(C)cc(/C=C3\SC(=O)NC3=O)c2C)cc1 56.2 µM [inhibitor, partial curve, poor fit], CCCCc1ccc(NC(=O)C2CCCC2)cc1 39.8 µM [inhibitor, single point], O=C(O)c1ccc(Cl)c(S(=O)(=O)Nc2ccccc2C(=O)Nc2ccc(Cl)cc2)c1 89.1 µM [inhibitor, partial curve, poor fit], CCN(CC)S(=O)(=O)c1ccc(NC2c3ccccc3C(=O)N2CCN2CCOCC2)cc1 (configuration not stated) 39.8 µM [inhibitor, single point], Fc1cccc2sc(Nc3nnc(-c4ccccc4)o3)nc12 89.1 µM [inhibitor, partial curve], Cc1ccc(OC(F)F)c(NC(=O)Nc2cccc(C(F)(F)F)c2)c1 17.8 µM [inhibitor, full curve], COc1ccc(CNC(=O)C(OC(=O)c2ccco2)c2ccc(F)cc2)cc1 (configuration not stated) 100 µM [inhibitor, single point], O=C(NCc1ccc(F)cc1)c1ccc2c(=O)n3c(nc2c1)CCCCC3 100 µM [inhibitor, single point], COc1ccccc1CNC(=O)CCCc1nnc2n(C)c(=O)c3sccc3n12 44.7 µM [inhibitor, partial curve], COc1ccc(C2(c3ccc(OC)cc3)NC(=O)N(CC(=O)Nc3ccccc3C)C2=O)cc1 79.4 µM [inhibitor, partial curve], Cc1ccc(C)n1-c1ccc(-n2cnnn2)cc1 39.8 µM [inhibitor, single point], CCOC(=O)c1sc(NC(=O)Nc2ccc(Cl)cc2)cc1C 35.5 µM [inhibitor, full curve, poor fit], COc1ccnc(Oc2ccccc2)c1C(=O)N/C=N/OCc1ccccc1 89.1 µM [inhibitor, single point], COC(=O)c1c(-c2cccnc2)csc1NC(=O)c1cc(C)on1 89.1 µM [inhibitor, single point], COc1ccc(NC(=O)COC(=O)C2CCN(S(=O)(=O)c3ccccc3)CC2)cc1Cl 39.8 µM [inhibitor, single point], COc1ccc(Nc2cc(C)c3cc([N+](=O)[O-])ccc3n2)cc1 100 µM [inhibitor, single point]

Activity change, negative = inhibition, inconclusive:
S=C(NCC1CCCO1)N1CCN(c2cccc(Cl)c2)CC1 (configuration not stated) -32% [inhibitor]
